# This is one part of the list. These are noisy estimates, calculated here from bound and input reads.
# Target: T1, Pho4 (S. cerevisiae) (UniProt P07270)
# T1 sequence: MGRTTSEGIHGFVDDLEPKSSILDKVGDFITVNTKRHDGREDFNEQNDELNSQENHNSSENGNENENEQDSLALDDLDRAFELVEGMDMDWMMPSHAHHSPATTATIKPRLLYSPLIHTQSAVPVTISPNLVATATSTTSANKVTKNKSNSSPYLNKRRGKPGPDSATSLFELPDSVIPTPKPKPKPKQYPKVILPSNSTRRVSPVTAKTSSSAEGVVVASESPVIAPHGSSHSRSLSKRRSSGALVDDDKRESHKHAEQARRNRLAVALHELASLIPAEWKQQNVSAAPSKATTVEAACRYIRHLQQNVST
# Experiment: relative binding free energy (BET-seq); higher = weaker binding
# Settings: reference: library average
row,Sequence,relative binding free energy [kcal/mol]
1,TTCTGCACGTGATAGT,0.01
2,GAGAGCACGTGTTGTG,-0.05
3,ATATTCACGTGCGAGG,0.2
4,AATAGCACGTGGCGGT,-0.06
5,TCATTCACGTGTTGTA,0.24
6,TCATGCACGTGTTGAG,0.01
7,CTAGGCACGTGGGTTG,-0.18
8,GTCATCACGTGTTGTT,0.12
9,TTTTTCACGTGTAGCG,0.11
10,AATTACACGTGAGGGT,0.22
11,TTGTACACGTGGTTGA,0.01
12,GTTCACACGTGTTATG,0.03
13,CTCGTCACGTGTTGTA,0.03
14,CATTTCACGTGTAGGA,0.38
15,ATTGACACGTGGTGCG,-0.09
16,TTCAACACGTGTTGAT,0.01
17,GAGGTCACGTGAATGG,0.43
18,AGCCGCACGTGTGTGT,0.02
19,TGAGTCACGTGGTCGC,-0.01
20,GGCAGCACGTGGGGTG,-0.14
21,ACGGGCACGTGGAATT,0.05
22,GGGATCACGTGAGGTC,0.38
23,ATTGGCACGTGGGCCT,-0.27
24,CATGTCACGTGGGATA,0.07
25,CAGAGCACGTGTATGT,-0.07
26,TAACGCACGTGTGGTT,-0.2

row,Sequence,relative binding free energy [kcal/mol]
1,AGTAGCACGTGTTTTA,-0.04
2,GTATCCACGTGGTATG,-0.01
3,TGGTGCACGTGGATAC,-0.03
4,TGGTTCACGTGAGTCA,0.42
5,TTTTACACGTGAGATG,0.21
6,CTGTTCACGTGTGTGG,0.31
7,CAAGACACGTGTTGGT,0.11
8,TAGGACACGTGGCCGG,-0.01
9,GAATGCACGTGTGCTT,0.16
10,AAATTCACGTGCGGGG,0.29
11,TCGAGCACGTGGCGTG,-0.14
12,ATCATCACGTGAGTAG,0.45
13,TTCCGCACGTGTGTTG,-0.03
14,TTTTGCACGTGAGGGT,0.24
15,AGTGACACGTGAAGTA,0.31
16,AGAGTCACGTGTGCAG,0.06
17,TGTATCACGTGGGCTC,0.01
18,GGAGTCACGTGGTGAG,0.09
19,TACGGCACGTGCGGTG,-0.12
20,GTTGTCACGTGGAACT,0.19
21,TGGGACACGTGCTATT,-0.04
22,AACAGCACGTGGGTTT,-0.15
23,GTGATCACGTGAGTGT,0.31
24,GGTTTCACGTGATTAG,0.38
25,GTTACCACGTGTGTGA,0.07
26,TTGTTCACGTGAAAGA,0.51

row,Sequence,relative binding free energy [kcal/mol]
1,ATAGCCACGTGTGTTG,-0.09
2,TGCTTCACGTGGGTGA,0.13
3,AATGTCACGTGTCGTC,0.22
4,CTGGGCACGTGTGTAT,0.05
5,GGGTGCACGTGATATG,0.15
6,GCCGTCACGTGGGGCT,0.03
7,TGTGACACGTGTGGCG,-0.01
8,GGCATCACGTGAGGTT,0.44
9,TAAGGCACGTGGTGTA,-0.17
10,GTATACACGTGATAGT,0.07
11,CAGGGCACGTGGTGTT,-0.22
12,CTTGGCACGTGTTACG,0.04
13,AATTTCACGTGTGGAT,0.22
14,GGTTGCACGTGGAACG,0.1
15,TAAGTCACGTGAGTGT,0.34
16,CTATGCACGTGGTTTG,-0.01
17,TATGTCACGTGTGAAT,0.2
18,GAGGGCACGTGTAAAT,0.26
19,TTTGGCACGTGGAGCA,-0.1
20,TGTGTCACGTGAAAGC,0.33
21,TGAAACACGTGAATGG,0.36
22,CTTTTCACGTGAGTGT,0.37
23,ATTGGCACGTGAATAG,-0.02
24,CATGTCACGTGGTTCT,0.17
25,AGTGTCACGTGATAAG,0.23
26,TTTATCACGTGAATGC,0.32

row,Sequence,relative binding free energy [kcal/mol]
1,AAGTCCACGTGGGCGG,-0.03
2,AGGGACACGTGTAAAG,0.28
3,CGGGTCACGTGTGCTT,0.2
4,TGTGGCACGTGGTGCT,-0.14
5,ATGTTCACGTGAGGTC,0.22
6,GAGATCACGTGGTTTT,0.14
7,GTTATCACGTGGATCT,0.1
8,AATGTCACGTGAAGAG,0.23
9,AACTGCACGTGGGTTG,-0.18
10,TTGCGCACGTGATTTG,-0.07
11,GTTAACACGTGTTGGC,0.22
12,GTTATCACGTGAGATT,0.43
13,CGCTTCACGTGGGGTG,0.15
14,CATGGCACGTGCTTTG,-0.06
15,TAAAGCACGTGGGATG,-0.25
16,GGGGACACGTGGGTAG,-0.05
17,CGTAGCACGTGGCGGA,-0.13
18,GAGTGCACGTGGAGAG,-0.03
19,GTCTTCACGTGTGTTG,0.3
20,ATTGACACGTGCGTGT,-0.1
21,CTGTTCACGTGTGTAT,0.38
22,TTTGCCACGTGCAAGG,-0.09
23,ATTTTCACGTGTGTTC,0.29
24,TTTTGCACGTGGCCTG,-0.14
25,GATATCACGTGGTTAA,0.14
26,GATTTCACGTGGTTGC,0.38

row,Sequence,relative binding free energy [kcal/mol]
1,TTGGACACGTGTTATA,0.04
2,TTGGACACGTGATGCT,0.11
3,TCTTTCACGTGGGGTT,0.18
4,TATTTCACGTGAGCTG,0.45
5,CTTAGCACGTGGGGAA,-0.18
6,ATTGCCACGTGGGTGG,-0.1
7,ATGGTCACGTGAGCGT,0.18
8,GGCTACACGTGGTGTG,0.09
9,TGGGTCACGTGAGAAG,0.33
10,TTTGTCACGTGCTGTG,0.02
11,TCTAACACGTGCGGGT,0.12
12,TGAGGCACGTGGATTC,-0.04
13,CGTGCCACGTGTTGTG,-0.06
14,ATAGGCACGTGATGGT,-0.04
15,TGTGTCACGTGTCGGC,0.13
16,GTTTTCACGTGCGTGA,0.31
17,TGATTCACGTGTTTGA,0.28
18,GTTTACACGTGGTTCT,0.17
19,CGGTCCACGTGATGGG,0.03
20,AGGTACACGTGGTCTA,-0.07
21,TTATTCACGTGCAATG,0.18
22,TGTTTCACGTGACGTC,0.31
23,GTTGGCACGTGCAATT,-0.1
24,CTTTGCACGTGAGTGA,0.01
25,GAATGCACGTGTACGT,0.18
26,ATATACACGTGGGGCG,-0.23

row,Sequence,relative binding free energy [kcal/mol]
1,TCTTACACGTGATTGT,0.14
2,GTCGGCACGTGATGAG,0.02
3,TAGGGCACGTGTGTTA,-0.01
4,TATTACACGTGGTATG,0
5,TGGCGCACGTGGGAGG,-0.1
6,TGGGGCACGTGTGTGG,-0.04
7,TGAGCCACGTGGGAGA,-0.02
8,TTGGCCACGTGGTTTC,-0.09
9,CAGGACACGTGGTGTA,-0.02
10,GTATGCACGTGATAAG,0.23
11,ATAGCCACGTGTGGTT,-0.05
12,TAGCTCACGTGGGGAT,0.1
13,GTATTCACGTGTTGGC,0.34
14,GAGGTCACGTGGATAT,0.15
15,ATGCACACGTGAGGTG,0.13
16,TGTTTCACGTGGTTTA,0.2
17,TAGGGCACGTGGGCTT,-0.23
18,TATGTCACGTGCGTGT,0.03
19,GAACGCACGTGGGTGT,-0.25
20,GGAAACACGTGTTGTG,-0.12
21,AGAAACACGTGTGAGG,-0.05
22,TTAGTCACGTGTAAGT,0.27
23,CGGTACACGTGTGCTG,0.05
24,ACAGTCACGTGGTAAG,0.12
25,ACTGTCACGTGAAGGG,0.35
26,TAAATCACGTGATTGT,0.35

row,Sequence,relative binding free energy [kcal/mol]
1,AAGGCCACGTGGGGGA,-0.3
2,TTAGGCACGTGTAGAT,0.09
3,CTAAGCACGTGAGGGT,0.24
4,GATAGCACGTGGGAGG,-0.1
5,TTCAGCACGTGTCGTT,0.04
6,TTTTGCACGTGAGTAA,0.18
7,TGACTCACGTGTTCGG,0.21
8,TATGACACGTGAGTGT,0.12
9,ATTAGCACGTGGGAGT,-0.11
10,GGAGCCACGTGGGTGA,-0.15
11,GGTGGCACGTGTCGTG,-0.08
12,TAGGTCACGTGATATT,0.24
13,TTGGCCACGTGTGGTC,-0.05
14,GGGCGCACGTGGATGG,-0.17
15,AGTCTCACGTGTTTGG,0.15
16,GTTCTCACGTGGTTTG,0.32
17,TGGTTCACGTGCCAGT,0.19
18,AGGGCCACGTGAATTT,0.31
19,GTTAGCACGTGGATGA,-0.05
20,GGTGTCACGTGGTAAC,0.04
21,TGCAGCACGTGAAAGG,0.18
22,TATTCCACGTGAGGTA,0.24
23,TCTAGCACGTGGTTAG,-0.12
24,GCAGGCACGTGTCAGG,0.04
25,GAGGGCACGTGGAAAA,0.18
26,TATTTCACGTGGATCG,0.37

row,Sequence,relative binding free energy [kcal/mol]
1,GATAACACGTGGGTTA,-0.02
2,GAGGACACGTGGTAAG,0.26
3,TATGTCACGTGGTTTG,0.1
4,CCGGGCACGTGGTAGG,-0.27
5,TGCCGCACGTGTTTGG,-0.02
6,TAGACCACGTGGTGTT,-0.03
7,CCGTGCACGTGGGTAG,-0.08
8,GTGGGCACGTGAATTT,0.18
9,CTATACACGTGGTGTT,-0.08
10,ATGTACACGTGCGGGC,0.11
11,TGCGACACGTGGTAGG,-0.04
12,TGTACCACGTGCGGGG,-0.26
13,GTGAGCACGTGGGCTC,-0.1
14,ATATGCACGTGTAAGG,0.1
15,CCGAGCACGTGGGGTG,-0.25
16,GTGTTCACGTGATCTT,0.33
17,GAGGTCACGTGATATA,0.21
18,TCGGTCACGTGCTGTA,0.1
19,TTCTACACGTGTGGCG,0.13
20,TTGCACACGTGGTGGC,-0.01
21,GGGCGCACGTGGTCTG,-0.09
22,ATTGCCACGTGCTGGT,-0.14
23,GGATCCACGTGTTTTT,0.14
24,TATCGCACGTGGATGT,-0.03
25,TTGTCCACGTGGTTGA,0.06
26,GGCTTCACGTGGAGGG,0.3

row,Sequence,relative binding free energy [kcal/mol]
1,TGTGACACGTGTCGTG,-0.03
2,AGGTACACGTGGTTTC,0.05
3,AGTGGCACGTGTGTTA,-0.01
4,CGGGTCACGTGCAGGT,0.11
5,CGGTTCACGTGTGGCG,0.27
6,GAGCTCACGTGGGGTG,0.01
7,CATGGCACGTGCTTGG,-0.14
8,GATGACACGTGTAATT,0.17
9,TAATGCACGTGTAAGG,0.12
10,GACGTCACGTGGGGCG,0
11,TGTGGCACGTGGCAGG,-0.07
12,CTTGGCACGTGCCGGT,-0.19
13,GGGGTCACGTGGGCGG,0.03
14,GGGGACACGTGAAGGT,0.2
15,TCTATCACGTGTTGAG,0.2
16,ATTTACACGTGAGGCA,0.26
17,TTGGGCACGTGAAGTC,0.14
18,GTCAGCACGTGTAGGA,-0.03
19,TAAGCCACGTGTAGGG,0.04
20,AGGTGCACGTGGCATG,-0.19
21,GCTCTCACGTGGGTTG,0.11
22,TGTGACACGTGGATTT,-0.05
